# Over roughly 33,000 sequences, “E-score (-0.5 to 0.5)” has its median near -0.017; the highest 2% begin near 0.3. The list shows a part of the results.
# Biological target: T1, Sut1 (UniProt P53032)
# T1 sequence: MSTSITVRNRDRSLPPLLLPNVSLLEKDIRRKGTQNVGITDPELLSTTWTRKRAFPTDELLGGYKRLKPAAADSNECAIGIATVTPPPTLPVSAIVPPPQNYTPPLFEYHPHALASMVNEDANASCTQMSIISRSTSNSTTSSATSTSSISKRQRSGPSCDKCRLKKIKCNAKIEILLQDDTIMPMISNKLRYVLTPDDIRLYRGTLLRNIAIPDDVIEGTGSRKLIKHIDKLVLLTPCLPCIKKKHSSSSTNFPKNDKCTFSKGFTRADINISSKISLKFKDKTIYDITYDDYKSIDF
# Assay: PBM E-score (8-mer binding enrichment) (E-score (-0.5 to 0.5)); higher = stronger / more preferred TF binding; most listed sequences are background and not binding sites
# Conditions: protein concentration: 200 nM; construct: GST-full length
# Method: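 Universal 'all 10-mer' protein binding microarrays (Agilent AMADID 015681) probed with GST-tagged S. cerevisiae TFs (full-length or DBD) made by in vitro transcription/translation (PURExpress), about 100-200 nM. Bound TF was detected with fluorescent anti-GST. Each ungapped 8-mer (which stands for itself and its reverse complement) is scored by the PBM enrichment score (E-score), a modified Wilcoxon-Mann-Whitney statistic from -0.5 to +0.5, computed with the Universal PBM Analysis Suite. Scale: above 0.35 generally sequence-specific binding.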
row,Sequence,PBM E-score
1,AAACAGAT,0.13
2,CTGTCTCA,-0.138
3,AGGGCCAC,-0.26
4,AGTGCGGA,0.248
5,CCGGCTCC,0.0984
6,CAATATCC,0.0312
7,ATCCCTGA,-0.0472
8,AGGGTCCC,-0.24
9,CCGAAAAG,0.178
10,GCGAAGCC,-0.128
11,ATGGGAGA,-0.233
12,CTGTTTCA,-0.0142
13,TAAACTTA,0.0483
14,AGGCGCGG,-0.145
15,GGAGAACC,0.115
16,GTGCCAAC,-0.0403
17,CAGAGCGC,-0.345
18,AGATCCAT,0.0569
19,AAAATCGT,0.0813
20,CACGTCAA,-0.12
21,AATTGGTC,0.132
22,AGATCTAT,-0.0198
23,ATATCCAT,0.193
24,AGCGTGAC,-0.108
25,CAGGAACC,-0.273

row,Sequence,PBM E-score
1,CTCTTCCC,-0.289
2,AGGAGGAA,-0.0769
3,AACGATCG,0.111
4,ATACTGGG,-0.138
5,AACTAGTC,0.0497
6,ACCCAAGT,-0.12
7,ACGCCATG,-0.149
8,AAGCTTGG,0.0601
9,AACCACCT,0.094
10,CGCTGGTA,-0.126
11,GCCAGGCA,0.0413
12,GTATGATA,0.27
13,CACCCTTA,-0.171
14,ACGTCAAA,0.0835
15,AACAACGC,0.0643
16,CGGTCCAG,-0.194
17,ATATATGA,0.176
18,AATATTAA,0.263
19,AGCCTAAT,0.0842
20,GACGTACC,-0.157
21,CTTTCGTA,0.0877
22,ACGCTAGG,-0.123
23,ATTAAAGG,0.194
24,AGCTCTTG,-0.248
25,ACGAACCG,-0.204

row,Sequence,PBM E-score
1,CCCTTACC,-0.17
2,ACGGCGGC,-0.168
3,AGTGCTGA,-0.2
4,CGGGTACC,-0.237
5,ATCCGTCC,-0.0115
6,GAAACTTC,0.0956
7,ATTTCCAC,0.126
8,CGCGGAAG,0.11
9,GCATTGCC,-0.209
10,GGAACGTA,-0.105
11,AATAACTC,0.186
12,AATAGTTC,0.0739
13,ACCGGTGC,-0.0607
14,AAGTATCG,-0.0195
15,CCCAGCCC,-0.283
16,CCGCTAAA,-0.0372
17,GGATCCAA,0.1
18,CATGATGA,0.0597
19,TACGCGAA,-0.0866
20,CGATCATC,-0.0321
21,TTGCACAA,-0.00301
22,AGGCTAGG,-0.312
23,AAGGCGGT,-0.142
24,AGCATGTG,-0.231
25,AATCCAGT,0.0499

row,Sequence,PBM E-score
1,CAACAGGC,-0.243
2,TATTTCAA,0.301
3,CCTTAGGA,-0.0422
4,AAGGGGGA,-0.0309
5,AGGTCTTG,-0.153
6,CGGAGGAA,0.0168
7,TGGCAACA,-0.067
8,ATTGTATA,0.311
9,TACCGTCA,-0.146
10,AAAGTTGC,-0.118
11,TAGCTCAA,-0.0138
12,AGGGGTCC,-0.273
13,ACCGTTTG,0.0491
14,CGCCCAGA,-0.185
15,TGAGCGCA,-0.0031
16,AGGGCCCC,-0.346
17,CCTGGCGA,-0.213
18,TCCAATAA,0.17
19,AACGTACT,0.122
20,GGTGTTGA,0.0232
21,AAGCCCAG,0.0601
22,ATAGCCTG,-0.139
23,AAGGCAAT,0.099
24,GACTGCAA,-0.14
25,ACACATCC,-0.103

row,Sequence,PBM E-score
1,ACATAGAC,0.0215
2,CGCCCCGC,-0.158
3,CAACCACA,0.131
4,AAAGGATT,-0.084
5,CTGACAAA,0.0355
6,ATACTGGA,0.122
7,AGCACCGA,0.143
8,AAAGTGCT,0.0514
9,AAAAGGCA,0.114
10,GCACTCAA,-0.128
11,ACCCCGGA,0.426
12,TGTACACA,0.0959
13,CCTGATTC,-0.00501
14,ATTAAGAC,0.123
15,CGCATAAA,0.0533
16,ATATCACG,0.137
17,AAGAATCA,0.207
18,CATTAACG,0.0861
19,GGTTGAAC,0.00313
20,ACCTGGGC,-0.339
21,ATCCGCTA,-0.057
22,CATTCAGA,-0.0722
23,ACACATGT,-0.0165
24,GCGTGTCC,-0.124
25,ATACCGTG,-0.209

row,Sequence,PBM E-score
1,CAATCCCG,0.0138
2,GAAGCACA,0.113
3,GCACGTGA,-0.228
4,AACTTAAC,0.216
5,ACTACTTG,-0.038
6,ATTTCTAC,0.0813
7,CCCCGGGG,0.198
8,AGGGTATG,-0.0994
9,ATGGACAA,-0.0528
10,AGGCAGGC,-0.208
11,AACTGTGG,-0.148
12,CGGAAAAA,0.273
13,ATTATCGC,0.238
14,CCAATTCC,0.0724
15,ATACTCAT,0.132
16,GAGAGGAA,0.0275
17,CGCGTCAG,-0.242
18,AGAAAGGA,-0.0461
19,ATTTAACA,0.213
20,ACCAGAAC,0.00879
21,AATCAAAT,0.216
22,TGAGATCA,-0.067
23,AAGACGAC,0.0308
24,AGCCAACC,0.119
25,CTTCTTCC,-0.0268

row,Sequence,PBM E-score
1,ACCGGGGA,-0.14
2,ACGTTTGG,-0.149
3,ACACTGCA,-0.15
4,CTAAAGCA,0.156
5,AAGGCATC,-0.118
6,GTGTAAAC,0.0373
7,ATCAGGTG,-0.16
8,ATGTATCG,0.0776
9,CTAGAGTC,-0.107
10,CGAGTGCG,0.0653
11,AGAGACTC,-0.00502
12,GTATCCTA,-0.0361
13,GACATAAA,0.195
14,GTCCTGTA,0.135
15,AGGACATA,-0.0903
16,CACAGACG,-0.12
17,CACCTCGG,0.128
18,TACATGAA,0.279
19,GGAACTCC,0.356
20,ACTGGACT,-0.107
21,AGTAGCTC,-0.123
22,ATATGCCG,-0.0897

# Reference: the supplement of paper PMC3334620
